{
  "source": "the supplement of paper PMC3334620",
  "note": "The full ranking holds about 33,000 sequences; the median of “E-score (-0.5 to 0.5)” is about -0.012, and the highest 2% start at about 0.27. Some of the results follow.",
  "data": [
    {"target": "T1, Vhr1 (UniProt P40522)", "T1 sequence": "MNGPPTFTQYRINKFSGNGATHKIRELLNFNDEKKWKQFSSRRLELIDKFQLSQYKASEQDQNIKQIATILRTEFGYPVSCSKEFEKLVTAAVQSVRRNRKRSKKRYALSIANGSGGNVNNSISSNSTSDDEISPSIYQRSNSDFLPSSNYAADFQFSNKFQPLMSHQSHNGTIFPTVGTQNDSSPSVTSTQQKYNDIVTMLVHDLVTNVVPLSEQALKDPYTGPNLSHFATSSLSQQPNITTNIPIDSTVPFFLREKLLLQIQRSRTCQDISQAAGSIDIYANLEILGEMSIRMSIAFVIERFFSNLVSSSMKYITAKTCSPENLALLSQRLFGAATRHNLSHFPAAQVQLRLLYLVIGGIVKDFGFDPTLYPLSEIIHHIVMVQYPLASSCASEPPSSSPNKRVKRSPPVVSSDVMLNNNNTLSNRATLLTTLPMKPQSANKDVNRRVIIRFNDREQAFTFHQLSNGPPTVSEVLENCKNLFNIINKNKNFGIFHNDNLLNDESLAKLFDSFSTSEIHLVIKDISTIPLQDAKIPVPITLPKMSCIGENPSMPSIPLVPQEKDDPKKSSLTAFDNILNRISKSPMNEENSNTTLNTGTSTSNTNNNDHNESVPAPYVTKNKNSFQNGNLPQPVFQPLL", "test": "PBM E-score (8-mer binding enrichment) (E-score (-0.5 to 0.5)); higher = stronger / more preferred TF binding; most listed sequences are background and not binding sites", "details": "protein concentration: 200 nM; construct: GST-full length", "in_short": "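Yeast transcription factors, full-length or as DNA-binding domains, were expressed with a GST tag using PURExpress in vitro transcription/translation. At about 100-200 nM they were applied to universal all-10-mer Agilent arrays, double-stranded by primer extension on fresh or once-stripped slides. Fluorescent anti-GST detected bound protein, and masliner normalised the scans. E-scores for ungapped eight-base words, pooled with reverse complements, came from the Universal PBM Analysis Suite.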", "values": [
      {"sequence": "GAACCTCA", "PBM E-score": -0.125},
      {"sequence": "GTGGACAA", "PBM E-score": -0.106},
      {"sequence": "CGAGTGTC", "PBM E-score": 0.121},
      {"sequence": "AAGGGTCC", "PBM E-score": -0.192},
      {"sequence": "CTATTACA", "PBM E-score": 0.0952},
      {"sequence": "TAAGCCCA", "PBM E-score": 0.0458},
      {"sequence": "AACGTCCC", "PBM E-score": -0.269},
      {"sequence": "CGATCGCC", "PBM E-score": 0.0829},
      {"sequence": "CCAGCTAC", "PBM E-score": 0.0616},
      {"sequence": "GAAGTACA", "PBM E-score": 0.00849},
      {"sequence": "AAAGGAGC", "PBM E-score": -0.17},
      {"sequence": "CACGCTAC", "PBM E-score": -0.0797},
      {"sequence": "ACTCGGTG", "PBM E-score": 0.189},
      {"sequence": "ATGTAACC", "PBM E-score": 0.106},
      {"sequence": "CAGACAAC", "PBM E-score": 0.0301},
      {"sequence": "ACACGGAG", "PBM E-score": -0.0139},
      {"sequence": "CTCTTTCC", "PBM E-score": -0.0776},
      {"sequence": "CCTACTGA", "PBM E-score": 0.00752},
      {"sequence": "GCCGGATA", "PBM E-score": -0.004},
      {"sequence": "GGGTTTCA", "PBM E-score": 0.0315},
      {"sequence": "GGTCCCGA", "PBM E-score": -0.0375},
      {"sequence": "CGCGCTAC", "PBM E-score": -0.0337},
      {"sequence": "ATAGCCTC", "PBM E-score": 0.0622},
      {"sequence": "AAACTTGG", "PBM E-score": -0.0661},
      {"sequence": "TGTCAACA", "PBM E-score": -0.192},
      {"sequence": "AAAAGCTC", "PBM E-score": -0.264},
      {"sequence": "CGTGTAAA", "PBM E-score": -0.144},
      {"sequence": "CCTTGGTC", "PBM E-score": -0.287},
      {"sequence": "CTATAGAG", "PBM E-score": -0.178},
      {"sequence": "CGCCACGC", "PBM E-score": -0.148},
      {"sequence": "AACCAGGA", "PBM E-score": -0.00068},
      {"sequence": "TAGCAAAA", "PBM E-score": -0.216},
      {"sequence": "GTGACCAC", "PBM E-score": 0.0504},
      {"sequence": "CCTAGACC", "PBM E-score": -0.157},
      {"sequence": "CTACCATA", "PBM E-score": 0.232},
      {"sequence": "ACCAGTTG", "PBM E-score": 0.173},
      {"sequence": "TCCCTGAA", "PBM E-score": -0.0584},
      {"sequence": "CTAGTCTA", "PBM E-score": -0.0969},
      {"sequence": "AACTCTAT", "PBM E-score": -0.0324},
      {"sequence": "AAATTCGT", "PBM E-score": 0.0882},
      {"sequence": "CCCGGTAA", "PBM E-score": -0.12},
      {"sequence": "ACTACTAA", "PBM E-score": 0.0623},
      {"sequence": "AATCTTTA", "PBM E-score": -0.0819},
      {"sequence": "GATCCTTA", "PBM E-score": -0.128},
      {"sequence": "AGAAGGCG", "PBM E-score": -0.17},
      {"sequence": "CTGGATCC", "PBM E-score": 0.0152},
      {"sequence": "GGGTGGGA", "PBM E-score": 0.239},
      {"sequence": "AATACGGT", "PBM E-score": -0.119},
      {"sequence": "GAACTCTC", "PBM E-score": -0.101},
      {"sequence": "CCCGTGGA", "PBM E-score": 0.0571},
      {"sequence": "GAGGAACA", "PBM E-score": 0.0217},
      {"sequence": "CCCCCCAA", "PBM E-score": -0.258},
      {"sequence": "CCGCCGTA", "PBM E-score": 0.0806},
      {"sequence": "CTGTGACC", "PBM E-score": -0.056},
      {"sequence": "GCGCCTAC", "PBM E-score": 0.0653},
      {"sequence": "ACACGCAT", "PBM E-score": 0.102},
      {"sequence": "CACCAAAC", "PBM E-score": 0.0452},
      {"sequence": "ATTACTTG", "PBM E-score": 0.164},
      {"sequence": "ATGCGCTG", "PBM E-score": -0.0838},
      {"sequence": "AGTGCTAG", "PBM E-score": -0.104},
      {"sequence": "AATCTGTC", "PBM E-score": -0.0564},
      {"sequence": "GTGAACAA", "PBM E-score": -0.0196},
      {"sequence": "ACGATACA", "PBM E-score": 0.0859},
      {"sequence": "ACTACCCC", "PBM E-score": 0.0818},
      {"sequence": "AAACAGGG", "PBM E-score": -0.0118},
      {"sequence": "ACCCCGAA", "PBM E-score": 0.119},
      {"sequence": "AAGTCCTA", "PBM E-score": -0.235},
      {"sequence": "AAAGACGC", "PBM E-score": -0.154},
      {"sequence": "ACGCTTGC", "PBM E-score": -0.0692},
      {"sequence": "AACTAGCT", "PBM E-score": -0.0619},
      {"sequence": "ATGCGTTC", "PBM E-score": 0.152},
      {"sequence": "ATCGGAGA", "PBM E-score": 0.00168},
      {"sequence": "GAACGGCC", "PBM E-score": -0.107},
      {"sequence": "CTATACAC", "PBM E-score": -0.0983},
      {"sequence": "CTACTTGC", "PBM E-score": 0.0953},
      {"sequence": "AGAGGACG", "PBM E-score": 0.127},
      {"sequence": "CCTGCCAA", "PBM E-score": -0.199},
      {"sequence": "TATCTCCA", "PBM E-score": 0.112},
      {"sequence": "AGCAAAAG", "PBM E-score": -0.248},
      {"sequence": "CCTAGAAA", "PBM E-score": -0.339},
      {"sequence": "AAGTGTAT", "PBM E-score": -0.187},
      {"sequence": "CTCGATAC", "PBM E-score": 0.0671},
      {"sequence": "CGCCGCAA", "PBM E-score": -0.089},
      {"sequence": "CGATTGCC", "PBM E-score": -0.114},
      {"sequence": "AGTGCACG", "PBM E-score": -0.0604},
      {"sequence": "AGGTTTTA", "PBM E-score": -0.216},
      {"sequence": "CAATATGC", "PBM E-score": 0.114},
      {"sequence": "ATCGCGTC", "PBM E-score": 0.0208},
      {"sequence": "ACTTGACT", "PBM E-score": 0.0723},
      {"sequence": "CGCTCCTA", "PBM E-score": -0.0243},
      {"sequence": "AACGCTGA", "PBM E-score": 0.00567},
      {"sequence": "TGTAAAAA", "PBM E-score": -0.225},
      {"sequence": "CAGGATGA", "PBM E-score": 0.266},
      {"sequence": "CCTATCAA", "PBM E-score": -0.182}
    ]}
  ]
}
